Among all 410,000 compounds or so, about 6,400 (1.6%) were called active. The shares of active, inactive and inconclusive entries below differ from those in the screen. Calls follow the shape of the dose curve; as a rule, active = well fitted inhibition curve with a large enough effect; inconclusive = small, poorly fitted or top-dose-only effect; inactive = no such curve, though single readings can be large or run the other way. Potencies of inconclusive entries are left out as doubtful fits.
What follows are compounds tested against Glucagon-like peptide 1 receptor (Homo sapiens) (UniProt P43220) (assay: qHTS of GLP-1 Receptor Inverse Agonists (Inhibition Mode)). Conditions: HEK293 GLP-1R CRE-luciferase, luminescence, 24 h, GLP-1R form is constitutively active; activity change, negative = inhibition: at 38.3 µM (top of the series) unless noted.
Sequence of UniProt P43220 (P43220 whole entry, looked up): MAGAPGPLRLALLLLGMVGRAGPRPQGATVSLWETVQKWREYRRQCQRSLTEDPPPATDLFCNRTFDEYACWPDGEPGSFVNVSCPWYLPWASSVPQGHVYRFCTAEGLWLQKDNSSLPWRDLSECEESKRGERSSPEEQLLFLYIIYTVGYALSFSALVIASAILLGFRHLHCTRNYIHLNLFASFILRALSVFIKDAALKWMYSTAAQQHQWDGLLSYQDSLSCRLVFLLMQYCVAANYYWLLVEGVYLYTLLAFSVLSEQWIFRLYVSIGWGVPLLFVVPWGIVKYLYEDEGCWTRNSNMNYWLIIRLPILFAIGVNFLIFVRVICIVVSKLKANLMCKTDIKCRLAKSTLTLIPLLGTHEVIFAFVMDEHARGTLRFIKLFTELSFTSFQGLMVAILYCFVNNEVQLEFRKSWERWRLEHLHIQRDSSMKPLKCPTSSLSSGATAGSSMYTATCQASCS
Procedure, shortened: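 Inverse agonism was detected as reduced cAMP-driven luciferase luminescence after 24 h compound treatment. The cells were HEK293 clones expressing constitutively active human GLP-1R with the reporter. Reporter-only and GPR119 cell lines served as counterscreen controls.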
In the case of `COC(=O)c1ccc2c(=O)n(CCCCCC(=O)NCCc3ccc(Cl)cc3)c(=O)[nH]c2c1`, the Potency is reported as “inactive”.
In the case of `CCOC(=O)c1ccc(N2C(=O)c3n[nH]c(-c4ccco4)c3C2c2cccc(OC)c2)cc1` (stereo unspecified), the Potency is reported as inconclusive [inhibitor, partial curve, poor fit].
In the case of `CCn1c(C(=O)N2CCC(C(=O)NCCc3ccc(C)cc3)CC2)cc2sccc21`, the Potency is reported as inconclusive [inhibitor, single point].
For `CN(C)c1ccc(-c2ccnc3c2CC(C)(C(=O)NCc2ccc(F)c(F)c2)O3)cc1` (stereo unspecified), the Potency was inconclusive [inhibitor, partial curve, poor fit].
For `Cc1ccc(Cn2ccnc2SCC(=O)NCc2ccccc2Cl)cc1`, the Potency was inconclusive [inhibitor, single point].
For `O=C(/C=C/c1c(Cl)cccc1Cl)n1cccn1`, the Potency was “inactive”.
In the case of `O=S(=O)(NCc1c(Cl)cccc1Oc1ccccc1)c1ccc(F)cc1`, the Potency is reported as inconclusive [inhibitor, partial curve, poor fit].
For `COc1ccc(Cl)cc1S(=O)(=O)NCc1ccc2c(c1)CCN2C(=O)c1cccc(C)c1`, the Potency was inconclusive [inhibitor, single point].
With `CCOc1ccc(NC(=O)C2CCN(S(=O)(=O)c3cccs3)CC2)cc1` the Potency was inconclusive [inhibitor, single point].
For `Cc1ccc(-c2nc(CS(=O)(=O)CC(=O)NC3CCC(C)CC3)c(C)o2)cc1` (stereo unspecified), the Potency was inconclusive [inhibitor, partial curve].
In the case of `COc1ccc(N=C2SC(CC(=O)Nc3ccccc3)C(=O)N2Cc2ccccn2)cc1` (stereo unspecified), the Potency is reported as inconclusive [inhibitor, single point].
With `Cc1ccc(NC(=O)CCC(=O)N2Cc3ccccc3Oc3ncccc32)c(C)c1` the Potency was “inactive”.
With `Cc1ccc(OCC(=O)N2CCN(c3ccc([N+](=O)[O-])c(N4CCOCC4)c3)CC2)cc1` the Potency was inconclusive [inhibitor, single point].
`Cc1ccc(C(C)C)c(OCC(O)CN2CCN(c3ccccc3F)CC2)c1` (stereo unspecified) was tested, and the Potency was inconclusive [inhibitor, partial curve, poor fit].
In the case of `CCc1ccc(/C=C2\Oc3ccc(C(=O)OC)cc3C2=O)cc1`, the Potency is reported as “inactive”.
With `O=C1NC(CCc2ccccc2)C(=O)N1Cc1ccccc1Cl` (stereo unspecified) the Potency was inconclusive [inhibitor, single point].
For `CN(c1ccccc1)S(=O)(=O)c1cccc(NC(=O)c2cccc(C#N)c2)c1`, the Potency was inconclusive [inhibitor, single point].
For `O/N=C/c1ccc(OCc2ccccc2F)c(Cl)c1`, the Potency was inconclusive [inhibitor, partial curve].
In the case of `COc1cccc(N2CCN(Cc3nc(N)nc(Nc4ccccc4OC)n3)CC2)c1`, the Potency is reported as inconclusive [inhibitor, partial curve, poor fit].
With `COc1cccc(CN2CCC(C(=O)N3CCN(c4ccccc4F)CC3)CC2)c1` the Potency was inconclusive [inhibitor, full curve, poor fit].
With `O=C(Nc1ccc2nc(SCC(=O)N3CCOCC3)sc2c1)c1cccc(Br)c1` the Potency was inconclusive [inhibitor, single point].
For `CC(C)Cc1nnc(NS(=O)(=O)c2ccc(Cl)cc2)s1`, the Potency was inconclusive [inhibitor, single point].
In the case of `C=CCn1c(-c2csc(-c3ccccc3)n2)n[nH]c1=S`, the Potency is reported as inconclusive [inhibitor, single point].
In the case of `CCc1nc(N2CCN(C(=O)c3ccccc3)CC2)c(C#N)c2c1COC(C)(C)C2`, the Potency is reported as inconclusive [inhibitor, partial curve, poor fit].
With `CC(C)(C)c1ccc(C(=O)NCC(c2cccnc2)N2CCc3ccccc3C2)cc1` (stereo unspecified) the Potency was inconclusive [inhibitor, single point].
`CC(=O)c1cccc(NC(=S)NC(=O)c2cccc(Cl)c2)c1` was tested, and the Potency was inconclusive [inhibitor, single point].
`COc1ccccc1OCc1ccc(C(=O)NC(C)c2ccccc2)o1` (stereo unspecified) was tested, and the Potency was inconclusive [inhibitor, partial curve, poor fit].
In the case of `Cc1cccc(CN2C(=O)c3ccccc3Sc3ccc(C(=O)NC4CCCCC4)cc32)c1`, the Potency is reported as inconclusive [inhibitor, single point].
For `Cc1cc(C)c(CN2CCC(n3nccc3NC(=O)C3CCCC3)CC2)cc1C`, the Potency was inconclusive [inhibitor, partial curve, poor fit].
In the case of `CN(c1ncc(C(F)(F)F)cc1Cl)N1C(=O)C2ONC3(C(=O)CC(C)(C)CC3=O)C2C1=O` (stereo unspecified), the activity change, negative = inhibition is reported as inactive: -7.17% [at 7.66 µM].
In the case of `COc1ccc2c(c1)c(CCNNC(=O)C(C)(C)C)c(C)n2C(=O)c1ccc(Cl)cc1`, the Potency is reported as active: 10 µM.
In the case of `CN(C)c1ccc(NC(=O)CCN2CCN(c3ccccn3)CC2)cc1`, the Potency is reported as “inactive”.
With `COc1cc(/C=N/NC(N)=O)ccc1OC(=O)c1ccco1` the Potency was “inactive”.
`O=C(N/N=C/c1cccn1-c1ccccc1)c1ccncc1` was tested, and the Potency was “inactive”.
For `O=C(Nc1nncs1)C(Sc1ccccc1)c1ccccc1` (stereo unspecified), the Potency was inconclusive [inhibitor, full curve, poor fit].
For `CC1CCCC(C)N1C(=O)CSCc1ccc(Cl)cc1` (stereo unspecified), the Potency was inconclusive [inhibitor, single point].
`CCC(C)NC(=O)c1nn(-c2ccc(C)cc2)nc1CO` (stereo unspecified) was tested, and the Potency was “inactive”.
For `Cn1c(-c2ccco2)n[nH]c1=S`, the Potency was “inactive”.
`CC12C(=O)N(c3cccc(OC(=O)c4ccco4)c3)C(=O)C1C1c3ccccc3C2c2ccccc21` (stereo unspecified) was tested, and the Potency was inconclusive [inhibitor, single point].
`Cc1cc(C)n(Cc2ccc(C(=O)Nc3cccc(Br)c3)o2)n1` was tested, and the Potency was inconclusive [inhibitor, single point].
For `COc1ccc(CN(C)[C@H]2C[C@H]3c4[nH]c5ccccc5c4CCN3C[C@H]2[C@H](C)O)cc1`, the Potency was inconclusive [inhibitor, single point].
% is scaled to controls: 0 for no effect and ±100 for the full control effect; potency is read from the fitted curve at half-maximal effect; tags tell the direction and shape of the fitted curve.
Also: nearly all actives have a fitted effect of over 55% in size.
